# Data from PubChem BioAssay (NCI).
#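 How tested: cells in 96-well plates exposed to compound for 48 hours at five concentrations. At the GI50, growth is halved. TGI denotes the concentration required for complete inhibition of growth.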
# Tested on: NCI-H322M lung
# Experiment: NCI-60 cell line screen, 48 h
SMILES,GI50 [µM],TGI [µM]
CCCCCc1ccc(S(=O)(=O)Nc2cc(-c3csc(NC(=O)CN4CCN(C)CC4)n3)ccc2N2CCN(C)CC2)cc1,1.22,3.47
CCN1CCN(S(=O)(=O)c2oc(-c3ccc(Cl)cc3)nc2C#N)CC1,16.8,30.9
